# Laboratory results as given in the supplement of paper PMC3334620.
# Whole data set: some 33,000 sequences, median “E-score (-0.5 to 0.5)” near -0.043, cut for the highest 2% near 0.37. Some of the results follow.
# Target: T1, Upc2 (UniProt Q12151)
# T1 sequence: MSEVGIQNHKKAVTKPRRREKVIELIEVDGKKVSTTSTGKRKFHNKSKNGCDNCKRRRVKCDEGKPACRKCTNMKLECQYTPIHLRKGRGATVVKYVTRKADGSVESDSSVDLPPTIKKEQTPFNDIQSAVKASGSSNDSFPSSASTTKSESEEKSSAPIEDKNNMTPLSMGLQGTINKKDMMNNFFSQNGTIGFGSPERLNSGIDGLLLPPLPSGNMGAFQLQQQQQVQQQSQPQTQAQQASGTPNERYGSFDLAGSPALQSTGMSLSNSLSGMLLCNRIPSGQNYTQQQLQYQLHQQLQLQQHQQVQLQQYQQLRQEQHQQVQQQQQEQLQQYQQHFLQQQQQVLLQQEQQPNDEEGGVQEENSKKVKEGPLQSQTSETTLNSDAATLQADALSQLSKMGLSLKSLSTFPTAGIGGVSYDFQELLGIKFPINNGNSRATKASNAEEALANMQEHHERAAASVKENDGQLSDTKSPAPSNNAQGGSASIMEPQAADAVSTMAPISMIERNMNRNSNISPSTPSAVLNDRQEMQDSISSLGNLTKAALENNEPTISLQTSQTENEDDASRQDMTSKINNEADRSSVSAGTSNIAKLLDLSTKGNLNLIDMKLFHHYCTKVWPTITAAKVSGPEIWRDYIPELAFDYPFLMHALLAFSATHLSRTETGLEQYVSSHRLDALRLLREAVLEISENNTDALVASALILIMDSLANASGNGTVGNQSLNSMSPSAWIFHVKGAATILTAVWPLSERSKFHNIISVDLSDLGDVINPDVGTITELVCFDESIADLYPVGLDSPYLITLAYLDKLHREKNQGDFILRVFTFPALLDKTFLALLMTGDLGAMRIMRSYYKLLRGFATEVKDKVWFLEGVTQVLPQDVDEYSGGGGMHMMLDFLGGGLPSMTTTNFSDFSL
# Assay: PBM E-score (8-mer binding enrichment) (E-score (-0.5 to 0.5)); higher = stronger / more preferred TF binding; most listed sequences are background and not binding sites
# Settings: protein concentration: 200 nM; construct: GST-full length
# Method: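 Universal 'all 10-mer' protein binding microarrays (Agilent AMADID 015681) probed with GST-tagged S. cerevisiae TFs (full-length or DBD) made by in vitro transcription/translation (PURExpress), about 100-200 nM. Bound TF was detected with fluorescent anti-GST. Each ungapped 8-mer (which stands for itself and its reverse complement) is scored by the PBM enrichment score (E-score), a modified Wilcoxon-Mann-Whitney statistic from -0.5 to +0.5, computed with the Universal PBM Analysis Suite. Scale: above 0.35 generally sequence-specific binding.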
row,Sequence,PBM E-score
1,AGGGCCCC,-0.0589
2,TGAGCGCA,-0.0898
3,CGCCCAGA,-0.132
4,ACCGTTTG,0.333
5,AGGGGTCC,-0.168
6,CCTGGCGA,-0.211
7,CAACAGGC,0.0751
8,AATCCAGT,-0.0287
9,CCTTAGGA,-0.221
10,TATTTCAA,-0.0159
11,AGGTCTTG,-0.244
12,AAGGGGGA,-0.135
13,ATTGTATA,0.0678
14,TGGCAACA,-0.11
15,CGGAGGAA,-0.179
16,TACGCGAA,0.33
17,CATGATGA,-0.0886
18,AAGGCGGT,0.0927
19,AGGCTAGG,-0.241
20,TTGCACAA,-0.00073
21,CGATCATC,0.0255
22,AGCATGTG,-0.0181

row,Sequence,PBM E-score
1,GGAACGTA,0.282
2,CGCGGAAG,-0.146
3,GCATTGCC,0.107
4,AATAGTTC,-0.0274
5,ACCGGTGC,-0.157
6,AATAACTC,-0.0669
7,CCGCTAAA,0.0868
8,CCCAGCCC,-0.217
9,AAGTATCG,-0.0548
10,GGATCCAA,-0.15
11,AGCTCTTG,-0.231
12,ATTAAAGG,-0.0441
13,AGTGCTGA,0.0336
14,ACGGCGGC,0.0871
15,CCCTTACC,-0.173
16,ACGAACCG,0.378
17,GAAACTTC,0.183
18,ATCCGTCC,-0.237
19,CGGGTACC,-0.158
20,ATTTCCAC,-0.204
21,GCCAGGCA,-0.279
22,CACCCTTA,-0.0397

row,Sequence,PBM E-score
1,ACGTCAAA,0.0428
2,GTATGATA,0.301
3,AGCCTAAT,0.112
4,AATATTAA,0.188
5,ATATATGA,0.0231
6,AACAACGC,0.0862
7,CGGTCCAG,0.0132
8,ACGCTAGG,-0.165
9,CTTTCGTA,0.416
10,GACGTACC,0.167
11,AGGAGGAA,0.0635
12,ACCCAAGT,-0.00236
13,AACTAGTC,-0.0861
14,ATACTGGG,-0.00635
15,AACGATCG,0.383
16,AAGCTTGG,0.127
17,ACGCCATG,0.0211
18,CGCTGGTA,-0.136
19,AACCACCT,-0.0524
20,CACGTCAA,-0.0754
21,ATATCCAT,0.12
22,AATTGGTC,-0.081

row,Sequence,PBM E-score
1,AGATCTAT,-0.011
2,AGCGTGAC,-0.0784
3,CAGGAACC,-0.161
4,CTCTTCCC,-0.25
5,CAGAGCGC,-0.185
6,AGATCCAT,-0.092
7,AAAATCGT,0.254
8,TAAACTTA,0.0706
9,CTGTTTCA,-0.114
10,ATGGGAGA,-0.251
11,GGAGAACC,-0.266
12,AGGCGCGG,-0.0131
13,GTGCCAAC,-0.0672
14,AGGGTCCC,-0.229
15,ATCCCTGA,-0.22
16,GCGAAGCC,0.0169
17,CCGAAAAG,0.0282
18,GTTCGACA,-0.0091
19,AGCTTTGG,0.0166
20,AAACAGAT,0.0332
